This assay has as its system NCI-H1944. As to the kind of experiment: normalised cell viability (NPI; 0 = phenylarsine oxide control, 1 = DMSO control) (fraction of DMSO control); NCI-H1944 is a non-small cell lung cancer line; higher = more viable cells (less compound toxicity). Particulars: 6 days.
Setting [1] is: glucocorticoid arm: hydrocortisone 2.75 uM co-treatment, compound 1 µM.
[2] abbreviates: glucocorticoid arm: hydrocortisone 2.75 uM co-treatment, compound 5 µM.
Setting [3] is: glucocorticoid arm: hydrocortisone 2.75 uM pre-treated 2 days and continued, compound 1 µM.
Setting [4] is: glucocorticoid arm: hydrocortisone 2.75 uM pre-treated 2 days and continued, compound 5 µM.
The mark [5] stands for this setting: glucocorticoid arm: vehicle, compound 1 µM.
The mark [6] stands for this setting: glucocorticoid arm: vehicle, compound 5 µM.

Counter-ions that a name gives are not always drawn. ± gives the standard deviation of the averaged measurements. The full ranking holds about 1,900 compounds; the median of “normalised cell viability (NPI; 0 = phenylarsine oxide control, 1 = DMSO control)” is about 1, and the lowest 2% start at about 0.039. The list shows a part of the results.
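Also: CTB read-out in 384-well plates, mean of triplicate wells, normalised per plate against 1 µM phenylarsine oxide and 0.1% DMSO, compounds added 24 h after seeding.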

As for `C=CCN1C[C@H](C)N([C@H](c2ccc(C(=O)N(CC)CC)cc2)c2cccc(OC)c2)C[C@H]1C`, the normalised cell viability was determined as 0.9903 ± 0.009 under setting [1]; 0.995 ± 0.017 under setting [2]; 1.01 ± 0.034 under setting [3]; 0.991 ± 0.0066 under setting [4]; 0.994 ± 0.0066 under setting [5]; 0.993 ± 0.007 under setting [6].

Consider `CC(Cc1ccc(OCC(=O)O)cc1)NCC(O)c1cccc(Cl)c1` (stereo not given), for which the normalised cell viability reads like this: under setting [1], 0.987 ± 0.028; under setting [2], 1 ± 0.017; under setting [3], 0.9923 ± 0.0086; under setting [4], 0.998 ± 0.017; under setting [5], 0.99 ± 0.012; under setting [6], 0.996 ± 0.0069.

Consider `NCCc1ccc(S(=O)(=O)F)cc1` [4-(2-Aminoethyl)benzenesulfonyl fluoride hydrochloride], for which the normalised cell viability stood at 0.985 ± 0.01 under setting [1]; 1.01 ± 0.01 under setting [2]; 0.996 ± 0.013 under setting [3]; 1.01 ± 0.025 under setting [4]; 0.988 ± 0.016 under setting [5]; 0.988 ± 0.0053 under setting [6].

Turning to `CN[C@@H]1C[C@@H](c2ccc(Cl)c(Cl)c2)c2ccccc21` [Indatraline hydrochloride], the normalised cell viability is, setting by setting: under setting [1], 1 ± 0.0095; under setting [2], 0.931 ± 0.02; under setting [3], 1.02 ± 0.021; under setting [4], 1.04 ± 0.084; under setting [5], 1.01; under setting [6], 1.03 ± 0.05.

Consider `O=[N+]([O-])c1cc(O)c(O)c([N+](=O)[O-])c1` [3,5-Dinitrocatechol], for which the normalised cell viability was 0.993 ± 0.0076 under setting [1]; 0.998 ± 0.01 under setting [2]; 1.001 ± 0.0085 under setting [3]; 0.994 ± 0.015 under setting [4]; 0.9977 ± 0.004 under setting [5]; 1.007 ± 0.0058 under setting [6].

On to `CN1[C@@H]2CC[C@H]1C[C@@H](OC(=O)[C@H](CO)c1ccccc1)C2` [L-Hyoscyamine], for which the normalised cell viability was determined as 1.01 ± 0.017 under setting [1]; 0.993 ± 0.012 under setting [2]; 0.9977 ± 0.004 under setting [3]; 0.987 ± 0.015 under setting [4]; 1.007 ± 0.0058 under setting [5]; 1.002 ± 0.0068 under setting [6].

With `CN1[C@@H]2CC[C@H]1C[C@@H](OC(=O)[C@H](CO)c1ccccc1)C2` [Hyoscyamine], the normalised cell viability reads like this: under setting [1], 0.959 ± 0.011; under setting [2], 0.981 ± 0.012; under setting [3], 0.9827 ± 0.0042; under setting [4], 0.979 ± 0.037; under setting [5], 0.9847 ± 0.0072; under setting [6], 0.996 ± 0.014.

For the compound `C[C@H](N)CN1CCc2ccc(Br)cc21` [VER-3323 hemifumarate salt], the normalised cell viability turned out to be 1.001 ± 0.0085 under setting [1]; 1.01 ± 0.024 under setting [2]; 1 ± 0.011 under setting [3]; 1.05 ± 0.021 under setting [4]; 0.9897 ± 0.0015 under setting [5]; 1 ± 0.015 under setting [6].

For the compound `C=CCN(C1=NCCN1)c1c(Cl)cccc1Cl` [Alinidine], the normalised cell viability is, setting by setting: under setting [1], 0.999 ± 0.012; under setting [2], 0.992 ± 0.016; under setting [3], 1.02 ± 0.049; under setting [4], 1 ± 0.021; under setting [5], 0.9973 ± 0.0031; under setting [6], 0.9913 ± 0.0035.

Take `CC[C@@]1(O)C(=O)OCc2c1cc1n(c2=O)Cc2cc3ccccc3nc2-1` [(S)-(+)-Camptothecin]: the normalised cell viability under setting [1] amounted to 0.066 ± 0.014; the normalised cell viability under setting [2] turned out to be 0.00107 ± 0.0017; the normalised cell viability under setting [3] turned out to be 0.328 ± 0.025; the normalised cell viability under setting [4] stood at 0.0202 ± 0.0036; the normalised cell viability under setting [5] worked out at 0.0279 ± 0.0022; the normalised cell viability under setting [6] was -0.000721 ± 0.0022.

As to `CN1c2ccccc2C(NCCCCCCC(=O)O)c2ccc(Cl)cc2S1(=O)=O` (stereo not given) [Tianeptine sodium], the normalised cell viability is, setting by setting: under setting [1], 1.007 ± 0.0058; under setting [2], 1 ± 0.035; under setting [3], 1.02 ± 0.015; under setting [4], 1.02 ± 0.024; under setting [5], 0.995 ± 0.0056; under setting [6], 0.9927 ± 0.0025.

On to `CN1CCN(c2ccc([N+](=O)[O-])c3no[n+]([O-])c23)CC1`, for which the normalised cell viability runs as follows: under setting [1], 0.984 ± 0.015; under setting [2], 1.04 ± 0.011; under setting [3], 0.993 ± 0.0076; under setting [4], 1.01 ± 0.01; under setting [5], 0.984 ± 0.011; under setting [6], 0.988 ± 0.01.

Consider `NC(CCP(=O)(O)O)C(=O)O` (racemic) [(±)-2-Amino-4-phosphonobutyric acid], for which the normalised cell viability was 0.9883 ± 0.0042 under setting [1]; 0.998 ± 0.0017 under setting [2]; 1.01 ± 0.014 under setting [3]; 1 ± 0.042 under setting [4]; 0.9923 ± 0.0071 under setting [5]; 0.9973 ± 0.0025 under setting [6].

In the case of `Clc1cccc(N2CCNCC2)c1` [1-(3-Chlorophenyl)piperazine dihydrochloride], the normalised cell viability under setting [1] was determined as 1.005 ± 0.0092; the normalised cell viability under setting [2] is 1.01 ± 0.021; the normalised cell viability under setting [3] was determined as 1.007 ± 0.0058; the normalised cell viability under setting [4] is 1.02 ± 0.014; the normalised cell viability under setting [5] is 0.992 ± 0.0044; the normalised cell viability under setting [6] was 0.9913 ± 0.0076.

Regarding `C#C[C@]1(O)CC[C@H]2[C@@H]3CCC4=Cc5nc6nc7ccccc7n6cc5C[C@]4(C)[C@H]3CC[C@@]21C`, the normalised cell viability reads like this: under setting [1], 1.02 ± 0.015; under setting [2], 1.06 ± 0.021; under setting [3], 1.05 ± 0.038; under setting [4], 1.06 ± 0.023; under setting [5], 1.01 ± 0.01; under setting [6], 1.023 ± 0.0058.

Source of the values: the supplement of paper PMC8285479.
